Experimental data as given in PubChem BioAssay AID652104 (National Center for Advancing Translational Sciences (NCATS), 2013).
Out of some 410,000 compounds screened, about 7,200 (1.8%) were called active. Inconclusive means that the source gave no clear call. Such entries were picked first, then a sample of the others. Calls follow the shape of the dose curve; as a rule, active = well fitted activation curve with a large enough effect; inconclusive = small, poorly fitted or top-dose-only effect, or another doubt; inactive = no such curve, though single readings can be large or run the other way. No potency is given beside an inconclusive call; the fits are too rough.

Test: qHTS of TDP-43 Inhibitors; also: nearly all actives have a fitted effect of over 50% in size; as to growth rescue (activation): % of control where 0% means no effect
Conditions: TDP-43 expressing yeast growth rescue, BacTiter-Glo, 24 h; growth rescue (activation): at 46.1 µM (top of the series) unless noted
How it was run: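 Growth rescue of TDP-43-toxic yeast measured as ATP luminescence (BacTiter-Glo). Cells grown to mid-log in raffinose, induced in galactose at OD600=0.02, exposed to compound 24 hr at 30 deg C.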
Potency is read from the fitted curve at half-maximal effect; tags tell the direction and shape of the fitted curve.

| Compound | Potency | growth rescue (activation) |
| --- | --- | --- |
| Cc1ccccc1S(=O)(=O)NC(=O)C1(C)CCN1C(=O)C1(c2ccc(Cl)cc2)CC1 (stereo unspecified) | active: 28.2 µM |  |
| Cc1ccc(-c2csc(NC(=O)c3c(C)noc3C)n2)s1 | active: 11.2 µM |  |
| O=C(Nc1ccccc1)[C@@H]1CC=C[C@@H]2CCN(Cc3ccc(Cl)c(Cl)c3)C(=O)[C@@H]21 | inconclusive [activator, single point] |  |
| O=S(=O)(c1c(F)cccc1F)N1CCCC2CCCCC21 (stereo unspecified) | inconclusive [activator, partial curve] |  |
| Cc1snc(SCc2c(F)cccc2Cl)c1C#N | inconclusive [activator, partial curve] |  |
| O=C(Nc1ccccc1)O/N=C1/CCCc2occc21 | inconclusive [activator, single point] |  |
| CN(C(=O)c1cc(COc2ccc(F)cc2Cl)on1)C1CCOC1 (stereo unspecified) |  | inactive: 15.3% |
| CCc1nnc(NC(=O)CCn2cnc3ccccc3c2=O)s1 |  | inactive: -6.17% |
| Cc1cc(C)c2cc(C#N)c(N3CCCC3)nc2c1 |  | inactive: 4.12% |
| Cc1ccc(CNc2oc(-c3ccc(COc4ccc(Cl)cc4)o3)nc2C#N)cc1 |  | inactive: 5.72% |
| COc1ccccc1NC(=O)C1=C(C)Nc2nc(-c3ccco3)nn2C1c1ccccc1 (stereo unspecified) | inconclusive [activator, single point] |  |
| Cc1ccccc1NC(=O)c1c(NC(=O)c2ccncc2)sc2c1CCC(C(C)(C)C)C2 (stereo unspecified) |  | inactive: 13.1% |
| Cc1oc2c(c1C(=O)N1CCC(C)CC1)C(=O)c1ccccc1C2=O | active: 12.6 µM |  |
| CC1=C(C(=O)NC2CC(C)(C)Cc3c2cnn3-c2ccc(C)cc2)OCCO1 (stereo unspecified) | inconclusive [activator, full curve] |  |
| CC1(C)Cc2ccccc2-c2nc3ccccc3c(=O)n21 | active: 12.6 µM |  |
| CCn1cc(CNC(=O)c2cc(COc3ccc(F)cc3Cl)on2)cn1 | inconclusive [activator, single point] |  |
| COc1ccc(N2N=NN(C(C)C)C2=C(Cl)c2nnnn2-c2ccc(OC)cc2)cc1 | inconclusive [activator, single point] |  |
| O=C1C=C(c2cccc(Cl)c2O)C[C@@H](c2ccc(F)cc2)C1 |  | inconclusive: -60.7% [activator] |
| COc1cccc(CNC(=O)c2ccc3c(c2)N(C)C(=O)C2CCCCN32)c1 (stereo unspecified) | inconclusive [activator, partial curve] |  |
| COc1ccccc1-c1csc(Nc2ccc(Oc3ccccc3)cc2)n1 | inconclusive [activator, partial curve, poor fit] |  |
| CC(C)OC(=O)c1ccc(NC(=O)c2cccc(-n3cnnn3)c2)cc1 | inconclusive [activator, full curve] |  |
| Cc1ccccc1C(=O)Nc1ccccc1NC(=O)c1ccccc1Br |  | inactive: 1.11% |
| O=C(Nc1ccc(Br)cc1)C1CCCN1S(=O)(=O)c1cccs1 (stereo unspecified) | inconclusive [activator, partial curve] |  |
| CCn1c(=O)c2cc(C(=O)N3CCN(c4cccc(OC)c4)CC3)sc2c2ccccc21 | inconclusive [activator, single point] |  |

| Compound | Potency | growth rescue (activation) |
| --- | --- | --- |
| CC(C)Cn1c(CN2CCN(c3ccccc3F)CC2)nc2c1c(=O)[nH]c(=O)n2C |  | inconclusive: 32.5% [activator] |
| COc1ccc(CCNC(=O)COC(=O)C23CC4CC(CC(C4)C2)C3)cc1 | inconclusive [activator, single point] |  |
| O=C(Nc1ccc(F)c(Cl)c1)C1CCCC1 |  | inactive: -22.6% |
| O=C(COC(=O)c1ccc(-c2ccc([N+](=O)[O-])cc2)o1)NC(=O)NC12CC3CC(CC(C3)C1)C2 | inconclusive [activator, partial curve] |  |
| O=S(=O)(c1cc(Cl)cc(Cl)c1O)N1CCC2(CC1)OCCO2 |  | inconclusive: -63.3% [activator] |
| O=C(N=C1c2ccccc2CN1c1cccc(Cl)c1)c1cccnc1 | inconclusive [activator, full curve, poor fit] |  |
| COc1ccc(C(=O)O/N=C(\C)c2ccccc2)cc1 |  | inactive: -12.2% |
| CCCn1nc(C(=O)Nc2nnc(C3CC3)s2)c2ccccc2c1=O | inconclusive [activator, partial curve] |  |
| Cc1ccc2c(c1)C(c1ccccc1)N(C(=O)c1ccc(S(=O)(=O)N3CCCCC3)cc1)CC(=O)N2 (stereo unspecified) | inconclusive [activator, partial curve] |  |
| CCc1ccc(CNC(=O)CSc2c3c(nc4ccc(Cl)cc24)CCCC3)cc1 | inconclusive [activator, partial curve] |  |
| O=C(NCCn1cc(SCc2ccccc2F)c2ccccc21)c1cccs1 | inconclusive [activator, single point] |  |
| O=c1n(Cc2ccccc2)c(O)c2n1Cc1ccccc1N=C2c1ccccc1 |  | inactive: 11.8% |
| CCCCc1ccc(S(=O)(=O)NC(=O)C2(C)CCN2C(=O)c2cccc(F)c2)cc1 (stereo unspecified) | inconclusive [activator, single point] |  |
| CC1(C(=O)NCc2ccc3c(c2)OCO3)CCN1C(=O)Cc1ccc(Cl)cc1Cl (stereo unspecified) | inconclusive [activator, partial curve] |  |
| Fc1ccc(C(Nc2ccccc2Cl)c2nnc(-c3ccccc3Cl)o2)cc1 (stereo unspecified) | inconclusive [activator, partial curve] |  |
| CC1CN(C(=O)COC(=O)c2ccc3ccccc3c2)CC(C)O1 (stereo unspecified) |  | inactive: 0% |
| N/C(=N\OC(=O)c1ccco1)c1ccccn1 | inconclusive [activator, partial curve] |  |
| COc1ccc(N(C(C)C(=O)NN=C2CCCC2)S(C)(=O)=O)cc1 (stereo unspecified) | inconclusive [activator, partial curve] |  |
| O=C(Nc1ccc(CN2CCOCC2)cc1)c1cc(Cl)ccc1Cl | inconclusive [activator, partial curve, poor fit] |  |
| CCOC(=O)Cc1nc2cc(Cl)ccc2o1 | inconclusive [activator, full curve, poor fit] |  |
| Cc1ccc(/C=N/NC(=O)C2(O)c3ccccc3-c3ccccc32)o1 | inconclusive [activator, partial curve, poor fit] |  |
| Oc1c(C(c2ccccc2)N2CCN(c3cccc(Cl)c3)CC2)sc2nc(-c3ccco3)nn12 (stereo unspecified) |  | inactive: 12.1% |
| O=c1c2ccccc2nc(-c2ccc(Br)cc2)n1Cc1ccccc1 | inconclusive [activator, single point] |  |
| CC(C)(C)c1ccc(C2=CC(c3ccccc3F)n3ncnc3N2)cc1 (stereo unspecified) |  | inactive: -2.63% |

| Compound | Potency | growth rescue (activation) |
| --- | --- | --- |
| COc1ccc(-c2csc3nc(C)nc(N4CCC(C)CC4)c23)cc1OC | inconclusive [activator, single point] |  |
| O=C(/C=C/c1ccc([N+](=O)[O-])cc1)c1ccco1 | inconclusive [activator, single point] |  |
| N#CC(Cc1ccc(OC(F)F)cc1)c1nc2ccccc2[nH]1 (stereo unspecified) |  | inactive: -4.67% |
| O=C(CSc1nccn1-c1ccc(Cl)cc1)Nc1cccc2ccccc12 | active: 11.2 µM |  |
| N#CCSc1nc2ccccc2c(=O)n1CCC(=O)NC1CCCCC1 | inconclusive [activator, partial curve] |  |
| O=Cc1c(NCc2ccccc2Cl)c2ccccc2[nH]c1=O | inconclusive [activator, single point] |  |
| O=C(Nc1nc(-c2ccccn2)cs1)c1ccc(-c2ccccc2F)o1 |  | inconclusive: -67.6% [activator] |
| Cn1c(=O)c2c(nc(-c3ccccc3)n2C)n(Cc2ccccc2)c1=O | inconclusive [activator, full curve] |  |
| CN1c2ccccc2-c2nc3ccccc3n2C1c1cccs1 (stereo unspecified) | active: 7.08 µM |  |
| Cc1ccc(C2Oc3ccccc3C3=C2C(c2cccs2)n2ncnc2N3)cc1 (stereo unspecified) | inconclusive [activator, partial curve, poor fit] |  |
| Cc1ccccc1N1C(=O)c2ccccc2N2C(=O)c3ccccc3C12 (stereo unspecified) | inconclusive [activator, partial curve] |  |
| CCn1ncc([N+](=O)[O-])c1C(=O)Nc1ccc(C)c(C)c1 | inconclusive [activator, partial curve] |  |
| C=C1CCN([C@@H](C)C(=O)OCc2cccc(C)c2)S(=O)(=O)c2ccccc21 |  | inactive: 0% |
| CN(C(=O)c1ccc(-c2nn(C)c(=O)c3ccccc23)cc1)C1CCCCC1 | inconclusive [activator, single point] |  |
| O=C(COC(=O)C1CCC1)NCc1ccc(F)cc1 |  | inactive: 6.87% |
| Cc1cccc(CSc2ncc(CO)n2Cc2ccc(F)cc2)c1 |  | inactive: 6.35% |
| O=C(Nc1ccc2ccccc2c1)c1ccccc1F | inconclusive [activator, partial curve] |  |
| COc1ccc2[nH]c(C)c(CCNc3ccc(C(F)(F)F)cc3[N+](=O)[O-])c2c1 | inconclusive [activator, single point] |  |
| CCOCCc1nn2c(=O)cc(COC(=O)CNC(=O)c3ccc(C(C)(C)C)cc3)nc2s1 |  | inactive: 7.41% |
| CCN(c1ccccc1)c1cc(C)nc2ncnn12 |  | inactive: 9.64% |
| Cc1nnsc1C(=O)Nc1cccc(Cl)c1Cl | inconclusive [activator, single point] |  |
| COc1ccc(/C=C/C(=O)c2ccc(NC(=O)c3cccs3)cc2)cc1OC | inconclusive [activator, single point] |  |
| Cc1c(C(=O)N2CCCCC2C)sc2ncnc(N3CCc4ccccc4C3)c12 (stereo unspecified) | inconclusive [activator, single point] |  |
